# Results: the supplement of paper PMC8728848
# The other results are listed elsewhere or left out.
# B1: Langerin CRD (Homo sapiens), Q9UJ71 (protein)
# chain: QVVSQGWKYFKGNFYYFSLIPKTWYSAEQFCVSRNSHLTSVTSESEQEFLYKTAGGLIYWIGLTKAGMEGDWSWVDDTPFNKVQSVRFWIPGEPNNAGNNEHCGNIKAPSLQAWNDAPCDKTFLFICKRPYVPSEPSAWSHPQFEK
# How the values were obtained:
# Test in all cases: glycan array binding signal (z-score within array); higher = stronger binding
# Conditions in all cases: glycan notation: IUPAC condensed, linker removed
# GlcA(b1-3)GlcNAc = molecular target: GlcA(b1-3)GlcNAc
# Method in brief: (§1)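 Arrays were curated from the Consortium for Functional Glycomics database, 3228 in total, and kept only where the protein sequence was available. Binding is expressed as a within-array Z-score. This score was averaged across arrays of the same protein sequence at different concentrations or buffers and across linkers, and negative values can be read as non-binding.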
# GlcA(b1-6)Gal = molecular target: GlcA(b1-6)Gal
# Method in brief: as §1
# [1] = molecular target: GlcNAc(a1-3)Gal(b1-4)GlcNAc
# Method in brief: as §1
# [2] = molecular target: GlcNAc(a1-6)Gal(b1-4)GlcNAc
# Method in brief: as §1
# [3] = molecular target: GlcNAc(b1-2)Gal(b1-3)GalNAc
# Method in brief: as §1
# [4] = molecular target: GlcNAc(b1-2)Man(a1-3)[GlcNAc(b1-2)Man(a1-6)]Man(b1-4)GlcNAc(b1-4)GlcNAc
# Method in brief: as §1
# GlcNAc(b1-3)Gal = molecular target: GlcNAc(b1-3)Gal
# Method in brief: as §1
# [5] = molecular target: GlcNAc(b1-3)Gal(b1-3)GalNAc
# Method in brief: as §1
# GlcNAc(b1-3)Gal(b1-4)Glc = molecular target: GlcNAc(b1-3)Gal(b1-4)Glc
# Method in brief: as §1
# [6] = molecular target: GlcNAc(b1-3)Gal(b1-4)GlcNAc
# Method in brief: as §1
# [7] = molecular target: GlcNAc(b1-3)Gal(b1-4)GlcNAc(b1-3)Gal(b1-4)GlcNAc
# Method in brief: as §1
# GlcNAc(b1-3)GalNAc = molecular target: GlcNAc(b1-3)GalNAc
# Method in brief: as §1
# GlcNAc(b1-3)Man = molecular target: GlcNAc(b1-3)Man
# Method in brief: as §1
# [8] = molecular target: GlcNAc(b1-3)[GlcNAc(b1-4)][GlcNAc(b1-6)]GlcNAc
# Method in brief: as §1
# [9] = molecular target: GlcNAc(b1-3)[GlcNAc(b1-6)]Gal(b1-4)GlcNAc
# Method in brief: as §1
# [10] = molecular target: GlcNAc(b1-3)[GlcNAc(b1-6)]GalNAc
# Method in brief: as §1
# [11] = molecular target: GlcNAc(b1-4)Gal(b1-4)GlcNAc
# Method in brief: as §1
# GlcNAc(b1-4)GlcNAc = molecular target: GlcNAc(b1-4)GlcNAc
# Method in brief: as §1
# [12] = molecular target: GlcNAc(b1-4)GlcNAc(b1-4)GlcNAc
# Method in brief: as §1
# [13] = molecular target: GlcNAc(b1-4)GlcNAc(b1-4)GlcNAc(b1-4)GlcNAc(b1-4)GlcNAc
# Method in brief: as §1
# [14] = molecular target: GlcNAc(b1-4)GlcNAc(b1-4)GlcNAc(b1-4)GlcNAc(b1-4)GlcNAc(b1-4)GlcNAc
# Method in brief: as §1
# [15] = molecular target: GlcNAc(b1-4)[GlcNAc(b1-6)]GalNAc
# Method in brief: as §1
# [16] = molecular target: GlcNAc(b1-6)Gal(b1-4)GlcNAc
# Method in brief: as §1
# GlcNAc(b1-6)GalNAc = molecular target: GlcNAc(b1-6)GalNAc
# Method in brief: as §1
# GlcNAc3Prop(b1-4)GlcNAc = molecular target: GlcNAc3Prop(b1-4)GlcNAc
# Method in brief: as §1
# Kdn(a2-3)Gal(b1-3)GlcNAc = molecular target: Kdn(a2-3)Gal(b1-3)GlcNAc
# Method in brief: as §1
# Kdn(a2-3)Gal(b1-4)GlcNAc = molecular target: Kdn(a2-3)Gal(b1-4)GlcNAc
# Method in brief: as §1
# [17] = molecular target: Man(a1-2)Man(a1-2)Man(a1-3)Man
# Method in brief: as §1
# [18] = molecular target: Man(a1-2)Man(a1-2)Man(a1-6)[Man(a1-3)]Man
# Method in brief: as §1
# Man(a1-2)Man(a1-3)Man = molecular target: Man(a1-2)Man(a1-3)Man
# Method in brief: as §1
# [19] = molecular target: Man(a1-2)Man(a1-3)[Man(a1-2)Man(a1-6)]Man
# Method in brief: as §1
# [20] = molecular target: Man(a1-2)Man(a1-3)[Man(a1-2)Man(a1-6)]Man(a1-6)[Man(a1-2)Man(a1-2)Man(a1-3)]Man
# Method in brief: as §1
# [21] = molecular target: Man(a1-2)Man(a1-3)[Man(a1-2)Man(a1-6)]Man(a1-6)[Man(a1-2)Man(a1-2)Man(a1-3)]Man(b1-4)GlcNAc(b1-4)GlcNAc
# Method in brief: as §1
# [22] = molecular target: Man(a1-2)Man(a1-3)[Man(a1-6)]Man(a1-6)[Man(a1-2)Man(a1-3)]Man(b1-4)GlcNAc(b1-4)GlcNAc
# Method in brief: as §1
# [23] = molecular target: Man(a1-2)Man(a1-6)[Man(a1-3)]Man(a1-6)[Man(a1-2)Man(a1-2)Man(a1-3)]Man
# Method in brief: as §1
# [24] = molecular target: Man(a1-2)Man(a1-6)[Man(a1-3)]Man(a1-6)[Man(a1-2)Man(a1-2)Man(a1-3)]Man(b1-4)GlcNAc(b1-4)GlcNAc
# Method in brief: as §1
# Man(a1-3)[Man(a1-6)]Man = molecular target: Man(a1-3)[Man(a1-6)]Man
# Method in brief: as §1
binder,measurement,setting,value
B1,glycan array binding signal (z-score),GlcA(b1-3)GlcNAc,0.023
same,glycan array binding signal (z-score),GlcA(b1-6)Gal,-0.619
same,glycan array binding signal (z-score),[1],0.17
same,glycan array binding signal (z-score),[2],-0.124
same,glycan array binding signal (z-score),[3],4.61
same,glycan array binding signal (z-score),[4],1.27
same,glycan array binding signal (z-score),GlcNAc(b1-3)Gal,0.773
same,glycan array binding signal (z-score),[5],0.953
same,glycan array binding signal (z-score),GlcNAc(b1-3)Gal(b1-4)Glc,2.31
same,glycan array binding signal (z-score),[6],1.68
same,glycan array binding signal (z-score),[7],0.437
same,glycan array binding signal (z-score),GlcNAc(b1-3)GalNAc,1.28
same,glycan array binding signal (z-score),GlcNAc(b1-3)Man,0.754
same,glycan array binding signal (z-score),[8],0.916
same,glycan array binding signal (z-score),[9],0.542
same,glycan array binding signal (z-score),[10],2.21
same,glycan array binding signal (z-score),[11],1.57
same,glycan array binding signal (z-score),GlcNAc(b1-4)GlcNAc,0.412
same,glycan array binding signal (z-score),[12],0.701
same,glycan array binding signal (z-score),[13],-0.437
same,glycan array binding signal (z-score),[14],-0.424
same,glycan array binding signal (z-score),[15],1.62
same,glycan array binding signal (z-score),[16],0.659
same,glycan array binding signal (z-score),GlcNAc(b1-6)GalNAc,1.27
same,glycan array binding signal (z-score),GlcNAc3Prop(b1-4)GlcNAc,-0.251
same,glycan array binding signal (z-score),Kdn(a2-3)Gal(b1-3)GlcNAc,-0.515
same,glycan array binding signal (z-score),Kdn(a2-3)Gal(b1-4)GlcNAc,-0.631
same,glycan array binding signal (z-score),[17],4.1
same,glycan array binding signal (z-score),[18],0.973
same,glycan array binding signal (z-score),Man(a1-2)Man(a1-3)Man,1.45
same,glycan array binding signal (z-score),[19],1.05
same,glycan array binding signal (z-score),[20],2.41
same,glycan array binding signal (z-score),[21],-0.352
same,glycan array binding signal (z-score),[22],0.646
same,glycan array binding signal (z-score),[23],1.86
same,glycan array binding signal (z-score),[24],0.337
same,glycan array binding signal (z-score),Man(a1-3)[Man(a1-6)]Man,1.31
